Test results taken from paper PMC6212790.
Some of the results follow. At the low end of the ranking the order means little.

target: T1, GST-Rok (full length) (UniProt O34857); experiment: protein binding microarray; conditions: Rok is a gene silencer of Bacillus subtilis; high values mean tight binding; most listed sequences are background and not binding sites; double strand, one strand shown;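 also: rank score from −0.5 (least bound) to 0.5 (best bound)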
T1 sequence: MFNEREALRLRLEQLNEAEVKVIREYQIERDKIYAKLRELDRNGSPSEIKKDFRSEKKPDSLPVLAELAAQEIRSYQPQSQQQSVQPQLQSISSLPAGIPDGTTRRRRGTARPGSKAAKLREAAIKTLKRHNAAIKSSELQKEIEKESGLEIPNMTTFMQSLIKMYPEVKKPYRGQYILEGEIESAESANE

Row | Sequence | binding signal [E-score]
1 | AGGGTCAC | -0.107
2 | CTACGTGA | -0.0406
3 | CTCCACTC | -0.133
4 | AGGGTTAT | -0.0286
5 | AACCTCAC | -0.146
6 | CCACTTTC | -0.0318
7 | CCTGTAGC | -0.137
8 | AAGAGAGT | -0.074
9 | ACCCCAGG | -0.305
10 | AGGCATTG | -0.101
11 | GCATGGGA | -0.332
12 | ACCTTAGC | 0.0341
13 | AAGCGTTG | -0.153
14 | ATAAACTC | 0.15
15 | CAAGATCG | 0.139
16 | CCACATGC | -0.0754
17 | CAGGAGAC | -0.217
18 | CCAGCCGG | -0.309
19 | ACCTAGCG | 0.0946
20 | ACAGCCTA | 0.0438
21 | ATTGGCCG | -0.208
22 | ACGAGCAT | 0.0943
23 | GCGTATAC | 0.143
24 | CTACAGCA | 0.152
25 | AAAATCCG | -0.022

Row | Sequence | binding signal [E-score]
26 | GATAGAAC | 0.278
27 | CGCTACCA | 0.2
28 | ATGATTTC | 0.0874
29 | AAGATAAG | 0.0733
30 | ACATATGG | 0.168
31 | GGTGCAGA | -0.161
32 | CCCCTTCA | -0.312
33 | AAGTCGAC | -0.0979
34 | ACTATCAG | 0.141
35 | ATGGTGTG | 0.0504
36 | GACAATGC | -0.153
37 | AAAGGTTG | -0.0391
38 | AGATGACC | -0.00541
39 | GCGCTCAA | -0.23
40 | ATAGTTCA | 0.218
41 | GGATCTAC | 0.306
42 | AACACACT | 0.215
43 | AGTGTCAC | -0.00213
44 | ACCACGAT | -0.0297
45 | GCGGAAGA | -0.163
46 | AGAGACCG | -0.191
47 | ACCCTTAG | -0.136
48 | CCACTCCG | -0.204
49 | CTAGTTAA | 0.349
50 | CTACTCAG | 0.0772

Row | Sequence | binding signal [E-score]
51 | ATTTGAAG | 0.0614
52 | CAGGGAAG | -0.266
53 | GTCGAAGA | -0.157
54 | CCCAGCGG | -0.336
55 | GGATGAAA | 0.0855
56 | CAATCTCG | 0.0723
57 | TAAAGTCA | 0.0321
58 | ATTGACAG | 0.0684
59 | CAGAGGAA | -0.105
60 | GCGCGAAC | 0.0168
61 | GAGACGAA | 0.0613
62 | AACGTGGA | 0.0997
63 | TGACAGCA | -0.106
64 | ATTATACA | 0.363
65 | ATAGCGCC | 0.0199
66 | AACTAAAG | -0.0498
67 | CCTGAGAC | -0.355
68 | TGGGCCAA | -0.309
69 | GCCAAAAC | -0.0966
70 | ATGAAGCC | -0.182
71 | TGAAAGAA | 0.145
72 | GTAAAAGA | 0.207
73 | CGCGTACA | -0.0503
74 | AGCAGCAC | -0.0929
75 | AAGACCGA | -0.347

Row | Sequence | binding signal [E-score]
76 | AGTCTCCC | -0.201
77 | CACAACAA | 0.0872
78 | AAAAGAGT | -0.0171
79 | GCCCCTAA | -0.324
80 | AACGTACC | 0.0773
81 | GCCCATGA | -0.174
82 | ATCCGCAG | -0.0663
83 | AAGACGGC | -0.159
84 | CAGGACGA | -0.29
85 | ATTTGATC | 0.213
86 | ATCAGCTA | 0.0949
87 | GAAAAGGA | -0.0603
88 | ACACTGGC | -0.124
89 | AAGAGTCG | -0.139
90 | CCTACGCG | -0.168
91 | CGAATAAG | -0.00303
92 | AAACGAGA | 0.0318
93 | CCGTAATC | -0.114
94 | CCAATAGA | 0.0455
95 | ACACAAGC | -0.0939
96 | ACTGGCCC | -0.235
97 | AGGCACCT | -0.166
98 | ATCCTAGC | 0.0957
99 | AACTACCA | 0.432
100 | CAGAAGGC | -0.174

Row | Sequence | binding signal [E-score]
101 | GCCACGCC | -0.385
102 | AGCACTTA | -0.0246
103 | ATATACCG | 0.385
104 | AGCCGCCT | -0.236
105 | GTGGCTTA | -0.247
106 | AGTTCTGC | 0.0876
107 | ATCCGATG | 0.0514
108 | CACAGGCG | -0.263
109 | CCAGGCTA | -0.0835
110 | CGTGCCGC | -0.244
111 | TCGTAACA | -0.047
112 | ATGCACTC | -0.11
113 | CTTGCTGA | -0.0525
114 | AATCTGCC | 0.0619
115 | GGAGAGTA | -0.109
116 | CAGCAGGA | -0.163
117 | AGCATGTC | 0.0983
118 | AAGCTCCT | -0.222
119 | ACGTAAAC | 0.0563
120 | GCTTCCAC | -0.251
121 | CGGCATAG | -0.182
122 | CAAGCGAC | -0.133
123 | CGAATCCA | 0.0813
124 | CCTTCGGA | -0.282
125 | GCGGATAC | 0.117

Row | Sequence | binding signal [E-score]
126 | ATTCGTTA | 0.228
127 | ACGATGCG | -0.234
128 | CTGCATGA | -0.128
129 | GTGATAAA | 0.22
130 | ATATCCGG | 0.237
131 | AGCGGCGG | -0.181
132 | ACCGTTTG | 0.102
133 | ATTTCGTG | 0.133
134 | AGTGGAGG | -0.0535
135 | AAACCCTC | -0.202
136 | CAATACAG | -0.06
137 | AACGAGCT | -0.281
138 | AGCCGACT | -0.0879
139 | CTTTTGAC | -0.0495
140 | AAGTTAGT | 0.285
141 | CCTTTACA | -0.043
142 | AATTACCT | 0.357
143 | AAACGTTC | 0.0262
144 | GTCGCCAA | -0.178
145 | AGATTCCA | 0.00642
146 | CAAACACC | -0.0777
147 | ACGGAGAG | -0.253
148 | CAACTTTA | 0.0585
149 | CTCCTCCC | -0.338
150 | CATTTTCA | -0.0649

Row | Sequence | binding signal [E-score]
151 | CCACCAGA | -0.259
152 | CAGCGTCC | -0.262
153 | CTCGGTTC | -0.22
154 | CACTCCGC | -0.146
155 | CCGGCTTA | -0.156
156 | AAATAGCT | 0.379
157 | CTGCGCTC | -0.324
158 | GGTGATAC | 0.115
159 | CCACTTGA | 0.0133
160 | AGTGCCGC | -0.112
161 | ATCGATTG | 0.135
162 | CGTATAGC | 0.139
163 | AACGCGAA | 0.0271
164 | GATCTTGA | 0.0464
165 | AGAATAGG | -0.105
166 | ATTGGTTG | 0.0567
167 | CAACCCAG | -0.294
168 | AGTTGTAT | 0.263
169 | CCTTGCTC | -0.154
170 | AGCACTAC | 0.0734
171 | CCGCTCAC | -0.126
172 | CAGTTTTA | 0.177
